Measurements reported in paper PMC11995724, “Antibiotic target discovery by integrated phenotypic and activity-based profiling of electrophilic fragments” (Cell chemical biology, 2025).
Out of some 3,200 compounds screened, about 110 (3.4%) showed an effect of 50% or more. The list shows a part of the results.

test system: T1, V. cholerae SAD30; parameters: species or system S. aureus MSSA476 (TSB) or V. cholerae SAD30 (LB); 384-well bacterial growth screen at 25 uM, OD600 relative to DMSO control; settings: relative growth, OD600, LB; 25 µM; inhibitor
T1 construct: SAD30

Row | Structure (SMILES) | % of control remaining
1 | CCCn1c(C)cc(C=C(C#N)C(=O)Nc2ccccc2)c1C [8-H05, 2-cyano-3-(2,5-dimethyl-1-propyl-1H-pyrrol-3-yl)-N-phenylprop-2-enamide] | 82.3249%
2 | N#CC(=Cc1cccc(F)c1F)C(N)=O [9-A03, 2-cyano-3-(2,3-difluorophenyl)prop-2-enamide] | 97.1448%
3 | CC(Cl)C(=O)NC(CC1CCCCC1)c1ncccn1 (stereo not shown) [7-H13, 2-chloro-N-[2-cyclohexyl-1-(pyrimidin-2-yl)ethyl]propanamide] | 75.3345%
4 | CCn1cc(C2CN(C(=O)C(C)Cl)CCO2)cn1 (stereo not shown) [7-G08, 2-chloro-1-[2-(1-ethyl-1H-pyrazol-4-yl)morpholin-4-yl]propan-1-one] | 80.6212%
5 | C=CC(=O)NC(c1ccc(F)cc1)c1nccn1C (stereo not shown) [2-N09, N-[(4-fluorophenyl)(1-methyl-1H-imidazol-2-yl)methyl]prop-2-enamide] | 90.1959%
6 | COc1ccc(CN2CCN(C(=O)CCl)CC2)cc1.Cl [5-A15, 2-chloro-1-{4-[(4-methoxyphenyl)methyl]piperazin-1-yl}ethan-1-one hydrochloride] | 102.721%
7 | C=CC(=O)N1CCC(C(=O)N[C@H]2CCO[C@H](c3ccccn3)C2)CC1 (racemic) [2-G15, rac-1-(prop-2-enoyl)-N-[(2R,4R)-2-(pyridin-2-yl)oxan-4-yl]piperidine-4-carboxamide] | 87.88%
8 | Cn1ccnc1C(=O)CCl [10-C15, 2-chloro-1-(1-methyl-1H-imidazol-2-yl)ethan-1-one] | 101.461%
9 | CC1=C(c2ccco2)CN(C(=O)C(C)Cl)CC1 (stereo not shown) [6-D15, 2-chloro-1-[5-(furan-2-yl)-4-methyl-1,2,3,6-tetrahydropyridin-1-yl]propan-1-one] | 84.937%
10 | C=CC(=O)NCCCc1conc1C [2-N13, N-[3-(3-methyl-1,2-oxazol-4-yl)propyl]prop-2-enamide] | 87.88%
11 | C=CC(=O)NCc1cccc(C(C)(F)F)c1 [3-O22, N-{[3-(1,1-difluoroethyl)phenyl]methyl}prop-2-enamide] | 103.911%
12 | CC(Cl)C(=O)Nc1ccc2c(c1)ncn2-c1ccccc1 (stereo not shown) [6-N13, 2-chloro-N-(1-phenyl-1H-1,3-benzodiazol-5-yl)propanamide] | 85.2403%
13 | O=C(CCl)N1CCN(C2CCCN(C3CCOCC3)C2=O)CC1 (stereo not shown) [5-E18, 3-[4-(2-chloroacetyl)piperazin-1-yl]-1-(oxan-4-yl)piperidin-2-one] | 92.9705%
